Source: US10299477B2 (priority 2015, dated 2019)

Experiments:
Type in all cases: in vivo
Puccinia recondita = assay: Test Example E: Brown rust on wheat; settings: for Test E control value (brown rust on wheat): preventive, control value class
Text: [Test Example E] Brown Rust on Wheat

Plasmopara viticola = assay: Test Example G: Downy mildew on vine; settings: for Test G control value: 250 ppm sprayed before inoculation; for Test G control value (downy mildew on vine): 250 ppm spray (2.5 ml/pot), preventive, control value class; for Test G (control value class): 250 ppm spray
Text: [Test Example G] Downy Mildew on Vine
Seeds of a test plant (grape variety: Neomuscat) were planted followed by cultivating until three to four first leaves appeared. […] After the sprayed dilutions were dried, a zoosporangia suspension (1-2×10^4 zoosporangia/ml) of Plasmopara viticola was inoculated to the plants by spraying.

Alternaia brassicicola = assay: Test Example C: Alternaria sooty spot on cabbage; settings: for Test C control value / Test C (control value class): Alternaria sooty spot on cabbage; for Test C control value (Alternaria sooty spot on cabbage): preventive, control value class
Text: [Test Example C] Alternaria Sooty Spot on Cabbage
Seeds of a test plant (cabbage variety: Shikidori) were planted followed by cultivating until the cotyledons extended.

Botrytis cinerea = assay: Test Example B: Gray mold on tomato; settings: for Test B control value (gray mold on tomato): preventive, control value class
Text: [Test Example B] Gray Mold on Tomato
Seeds of a test plant (tomato variety: Oogata Fukuju) were planted followed by cultivating until three to five first leaves (true leaves) appeared.

[1] = tested on: Blumeria graminis f sp. hordei; assay: Test Example D: Powdery mildew on barley; settings: for Test D control value (powdery mildew on barley): preventive, control value class
Text: [Test Example D] Powdery Mildew on Barley
After the sprayed dilutions were dried, conidia of Blumeria graminis f sp. hordei were inoculated to the plants by shaking off.

[2] = Downy mildew on vine, 7-10 days after inoculation
[3] = brown rust on wheat, Puccinia recondita, 250 ppm spray
[4] = downy mildew on vine, Plasmopara viticola, 7-10 days after inoculation
[5] = gray mold on tomato, Botrytis cinerea, 250 ppm spray
[6] = powdery mildew on barley, 250 ppm spray

Cn1c(-c2c(F)cc(Br)cc2F)c(-c2cc(F)ccc2Cl)cc(Cl)c1=O [Compound 681]
Test E (control value class, brown rust on wheat) (Puccinia recondita; in vivo): H (H shows more than 50% of control values) | Test G (control value class, downy mildew on vine) (Plasmopara viticola; 250 ppm, sprayed 2.5 ml/pot before inoculation, evaluated 7-10 days after inoculation): L (L shows 50% or less of control values) | Test C (control value class, Alternaria sooty spot on cabbage) (Alternaia brassicicola; in vivo): H (H shows more than 50% of control values) | Test B (control value class, gray mold on tomato) (Botrytis cinerea; in vivo): H (H shows more than 50% of control values) | Test D (control value class, powdery mildew on barley) ([1]; in vivo): H (H shows more than 50% of control values)

CCn1c(-c2c(F)cccc2Br)c(-c2cc(OC)cc(OC)c2Br)ccc1=O [Compound 176]
Test E control value (Puccinia recondita; Brown rust on wheat): H (H shows more than 50% of control values) | Test G control value (Plasmopara viticola; [2]): H (H shows more than 50% of control values) | Test C control value (Alternaia brassicicola): H (H shows more than 50% of control values) | Test B control value (Botrytis cinerea; Gray mold on tomato): H (H shows more than 50% of control values) | Test D control value ([1]; Powdery mildew on barley): H (H shows more than 50% of control values)

CCn1c(-c2c(F)cccc2F)c(-c2cccc(C(F)(F)F)c2)cc(Cl)c1=O [Compound 299]
Test E control value (brown rust on wheat) (Puccinia recondita; 250 ppm spray): H (H shows more than 50% of control values) | Test G control value (downy mildew on vine) (Plasmopara viticola; 7-10 days after inoculation): L (L shows 50% or less of control values) | Test C control value (Alternaria sooty spot on cabbage) (Alternaia brassicicola; 250 ppm spray): H (H shows more than 50% of control values) | Test B control value (gray mold on tomato) (Botrytis cinerea; 250 ppm spray): H (H shows more than 50% of control values) | Test D control value (powdery mildew on barley) ([1]; 250 ppm spray): H (H shows more than 50% of control values)

O=c1c(Cl)cc(-c2ccc(Cl)cc2Cl)c(-c2c(F)cccc2F)n1CC(F)F [Compound 347]
Test E control value (brown rust on wheat) (Puccinia recondita; 250 ppm spray): H (H shows more than 50% of control values) | Test G control value (downy mildew on vine) (Plasmopara viticola; 7-10 days after inoculation): L (L shows 50% or less of control values) | Test C control value (Alternaria sooty spot on cabbage) (Alternaia brassicicola; 250 ppm spray): H (H shows more than 50% of control values) | Test B control value (gray mold on tomato) (Botrytis cinerea; 250 ppm spray): H (H shows more than 50% of control values) | Test D control value (powdery mildew on barley) ([1]; 250 ppm spray): H (H shows more than 50% of control values)

CCn1c(-c2c(F)cccc2F)c(-c2c(F)c(F)c(F)c(F)c2F)ccc1=O [Compound 368]
Test E control value (brown rust on wheat) (Puccinia recondita; 250 ppm spray): H (H shows more than 50% of control values) | Test G control value (downy mildew on vine) (Plasmopara viticola; 7-10 days after inoculation): L (L shows 50% or less of control values) | Test C control value (Alternaria sooty spot on cabbage) (Alternaia brassicicola; 250 ppm spray): H (H shows more than 50% of control values) | Test B control value (gray mold on tomato) (Botrytis cinerea; 250 ppm spray): H (H shows more than 50% of control values) | Test D control value (powdery mildew on barley) ([1]; 250 ppm spray): H (H shows more than 50% of control values)

Cn1c(-c2c(F)cccc2F)c(-c2cccc(F)c2F)ccc1=O [Compound 535]
Test E (control value class) (Puccinia recondita; [3]): H (H shows more than 50% of control values) | Test G (control value class) (Plasmopara viticola; [4]): L (L shows 50% or less of control values) | Test C (control value class) (Alternaia brassicicola; 250 ppm spray): H (H shows more than 50% of control values) | Test B (control value class) (Botrytis cinerea; [5]): H (H shows more than 50% of control values) | Test D (control value class) [1, 6]: H (H shows more than 50% of control values)

Cc1cc(-c2cc(F)ccc2F)c(-c2c(F)cccc2F)n(C)c1=O [Compound 499]
Test E (control value class) (Puccinia recondita; [3]): H (H shows more than 50% of control values) | Test G (control value class) (Plasmopara viticola; [4]): H (H shows more than 50% of control values) | Test C (control value class) (Alternaia brassicicola; 250 ppm spray): H (H shows more than 50% of control values) | Test B (control value class) (Botrytis cinerea; [5]): H (H shows more than 50% of control values) | Test D (control value class) [1, 6]: H (H shows more than 50% of control values)

CCn1c(-c2c(F)cccc2F)c(-c2cc(OCC#N)ccc2Cl)ccc1=O [Compound 98]
Test E control value (Puccinia recondita; Brown rust on wheat): H (H shows more than 50% of control values) | Test G control value (Plasmopara viticola; [2]): H (H shows more than 50% of control values) | Test C control value (Alternaia brassicicola): H (H shows more than 50% of control values) | Test B control value (Botrytis cinerea; Gray mold on tomato): H (H shows more than 50% of control values) | Test D control value ([1]; Powdery mildew on barley): H (H shows more than 50% of control values)

CCn1c(-c2c(F)cc(Br)cc2F)c(-c2cc(OC)c(Cl)c(OC)c2)ccc1=O [Compound 202]
Test E control value (brown rust on wheat) (Puccinia recondita; 250 ppm spray): H (H shows more than 50% of control values) | Test G control value (downy mildew on vine) (Plasmopara viticola; 7-10 days after inoculation): H (H shows more than 50% of control values) | Test C control value (Alternaria sooty spot on cabbage) (Alternaia brassicicola; 250 ppm spray): H (H shows more than 50% of control values) | Test B control value (gray mold on tomato) (Botrytis cinerea; 250 ppm spray): H (H shows more than 50% of control values) | Test D control value (powdery mildew on barley) ([1]; 250 ppm spray): L (L shows 50% or less of control values)

Cn1c(-c2c(F)cccc2F)c(-c2ccc(Cl)cc2Cl)ccc1=O [Compound 346]
Test E control value (brown rust on wheat) (Puccinia recondita; 250 ppm spray): L (L shows 50% or less of control values) | Test G control value (downy mildew on vine) (Plasmopara viticola; 7-10 days after inoculation): L (L shows 50% or less of control values) | Test C control value (Alternaria sooty spot on cabbage) (Alternaia brassicicola; 250 ppm spray): H (H shows more than 50% of control values) | Test B control value (gray mold on tomato) (Botrytis cinerea; 250 ppm spray): H (H shows more than 50% of control values) | Test D control value (powdery mildew on barley) ([1]; 250 ppm spray): L (L shows 50% or less of control values)

CCn1c(-c2c(F)cccc2F)c(-c2c(F)cccc2Cl)cc(Cl)c1=O [Compound 397]
Test E (control value class) (Puccinia recondita; [3]): H (H shows more than 50% of control values) | Test G (control value class) (Plasmopara viticola; [4]): H (H shows more than 50% of control values) | Test C (control value class) (Alternaia brassicicola; 250 ppm spray): H (H shows more than 50% of control values) | Test B (control value class) (Botrytis cinerea; [5]): H (H shows more than 50% of control values) | Test D (control value class) [1, 6]: H (H shows more than 50% of control values)

COc1cc(F)c(-c2c(-c3ccccc3)ccc(=O)n2C)c(F)c1 [Compound 778]
Test E (control value class) (Puccinia recondita; Brown rust on wheat, control value=100{1-(n/3)}): H (H shows more than 50% of control values) | Test G (control value class) (Plasmopara viticola; Downy mildew on vine, 2.5 ml/pot, evaluated 7-10 days after inoculation): H (H shows more than 50% of control values) | Test C (control value class) (Alternaia brassicicola; control value=100{1-(n/3)}): H (H shows more than 50% of control values) | Test B (control value class) (Botrytis cinerea; Gray mold on tomato, control value=100{1-(n/3)}): H (H shows more than 50% of control values) | Test D (control value class) ([1]; Powdery mildew on barley, control value=100{1-(n/3)}): H (H shows more than 50% of control values)

CCn1c(-c2c(F)cccc2F)c(-c2cc(OCC#N)ccc2Cl)cc(Br)c1=O [Compound 128]
Test E control value (Puccinia recondita; Brown rust on wheat): H (H shows more than 50% of control values) | Test G control value (Plasmopara viticola; [2]): H (H shows more than 50% of control values) | Test C control value (Alternaia brassicicola): H (H shows more than 50% of control values) | Test B control value (Botrytis cinerea; Gray mold on tomato): H (H shows more than 50% of control values) | Test D control value ([1]; Powdery mildew on barley): H (H shows more than 50% of control values)

Cn1c(-c2c(F)cc(F)cc2F)c(-c2cccc(F)c2F)cc(Br)c1=O [Compound 560]
Test E (control value class) (Puccinia recondita; [3]): H (H shows more than 50% of control values) | Test G (control value class) (Plasmopara viticola; [4]): L (L shows 50% or less of control values) | Test C (control value class) (Alternaia brassicicola; 250 ppm spray): H (H shows more than 50% of control values) | Test B (control value class) (Botrytis cinerea; [5]): H (H shows more than 50% of control values) | Test D (control value class) [1, 6]: H (H shows more than 50% of control values)
